According to patent US6919424B2, “Binding peptides for carcinoembryonic antigen (CEA)” (Dyax Corp., priority 2000, dated 2005):
Values joined by “and” are separate entries in the source; they are usually repeats but may differ in a detail not shown here. Identical values can stand only once. At least one compound was matched to its structure with a doubt left. Bridge positions count the residues as written; N and C are the ends. Peptide text beside a SMILES is read from it. * marks the point of attachment. 5FAM = O=C1OC2(c3ccc(O)cc3Oc3cc(O)ccc32)c2ccc(C(=O)*)cc21

Key:
[1] = target: T1, H6NA3 (Homo sapiens, UniProt P06731); assay: Fluorescence anisotropy competition experiment, competitor cT84.66; format: binding; details: Table 3; labeled peptide and H6NA3 constant, unlabeled cT84.66 varied; apparent Kd
T1 construct: H6NA3, consisting of a hexahistidine leader and the N and A3 domains of CEA, was used
T1 sequence (P06731 35-144 limits assumed): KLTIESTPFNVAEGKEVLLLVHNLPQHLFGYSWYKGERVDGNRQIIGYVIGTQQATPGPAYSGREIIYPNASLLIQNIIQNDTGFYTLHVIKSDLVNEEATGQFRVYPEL
T1 sequence (P06731 501-588 limits assumed): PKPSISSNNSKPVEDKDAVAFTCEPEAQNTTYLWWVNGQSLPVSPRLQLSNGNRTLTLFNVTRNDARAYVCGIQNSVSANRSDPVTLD

[2] = target: T1, H6NA3; assay: Fluorescence anisotropy direct binding to H6NA3 / NA3
Description: (§1) Each peptide was also provided with a C-terminal amide-functional linker useful for immobilizing peptides to various chromatographic substrates: -Ala18-Pro19-Gly20-Gly-Glu-Gly-Gly-Gly-Ser-Lys-CONH2 (SEQ ID NO:28). […] Aliquots of each peptide were fluorescently labeled using NHS-fluorescein reacted with the ε-amino side group of the C-terminal lysine.
Dissociation constants were determined using fluorescence anisotropy, through direct binding measurements and competition experiments. In direct binding assays, the concentration of the fluorescein-labeled peptide is held constant and the concentration of H6NA3 is varied. In the competition experiment, the concentration of the fluorescein-labeled peptide and the H6NA3 target are held constant and the concentration of a competitor (cT84.66, unlabeled) is varied. The change in anisotropy is fit to the appropriate equation via nonlinear regression to obtain the apparent Kd.
Aliquots of each peptide were fluorescently labeled using NHS-fluorescein reacted with the ε-amino side group of the C-terminal lysine.
Dissociation constants were determined using fluorescence anisotropy, through direct binding measurements (see Example 6).
as §1, with “Peptides including the binding domain of the CEA binder Isolates were synthesized by solid-phase synthesis. Each” for “Each”
Dissociation constants were determined using fluorescence anisotropy, through direct binding measurements to either NA-3 or CEA in PBS with 0.01% TWEEN 20. In direct binding assays, the concentration of the fluorescein-labeled peptide is held constant and the concentration of NA3 is varied. In the competition experiment, the concentration of the fluorescein-labeled peptide and the NA3 target are held constant and the concentration of competitor peptide (from Isolate 12-H12) is varied. The change in anisotropy is fit to the appropriate equation via nonlinear regression to obtain the apparent Kd. Isolate 304A-12-H12, previously isolated from Lib2 and assayed for binding, was analyzed in parallel as a control. Replicate analyses were run for certain binders and are reported to confirm accuracy and precision of measurements. KD standard error values are calculated from the nonlinear regression (SIGMAPLOT, SPSS Science, Chicago, Ill.).

[3] = target: T2, NA3 (Homo sapiens, UniProt P06731); assay: Fluorescence anisotropy competition experiment, competitor peptide from Isolate 12-H12; format: binding; details: Table 10; NA3 target, competitor peptide from Isolate 12-H12 varied; replicate analyses listed
T2 construct: H6NA3, consisting of a hexahistidine leader and the N and A3 domains of CEA, was used
T2 sequence (P06731 35-144 limits assumed): T1 sequence (P06731 35-144 limits assumed)
T2 sequence (P06731 501-588 limits assumed): T1 sequence (P06731 501-588 limits assumed)

[4] = Table 3, fluorescein-labeled 27-mer peptide constant, H6NA3 varied, read-out: KD (μM) direct binding
[5] = Table 10, PBS with 0.01% TWEEN 20, replicate analyses listed, read-out: NA3 KD (μM) direct binding
[6] = Table 7, Lib2 isolate peptides, H6NA3, read-out: KD (μM) direct binding

SMILES | Kd [2, 4] | Kd [2, 5] | Kd [3] | further results
CC(C)C[C@@H]1NC(=O)[C@H](CCC(=O)O)NC(=O)[C@@H](NC(=O)[C@@H](NC(=O)[C@H](Cc2c[nH]c3ccccc23)NC(=O)[C@H](CC(=O)O)NC(=O)[C@@H](N)CO)C(C)C)CSSC[C@@H](C(=O)N[C@@H](CCC(N)=O)C(=O)N2CCC[C@H]2C(=O)N[C@@H](CC(C)C)C(=O)N[C@@H](C)C(=O)N2CCC[C@H]2C(=O)NCC(=O)NCC(=O)N[C@@H](CCC(=O)O)C(=O)NCC(=O)NCC(=O)NCC(=O)N[C@@H](CO)C(=O)N[C@@H](CCCCNC(=O)c2ccc3c(c2)C(=O)OC32c3ccc(O)cc3Oc3cc(O)ccc32)C(N)=O)NC(=O)[C@H](C(C)C)NC(=O)[C@H](Cc2ccc(O)cc2)NC(=O)CNC(=O)CNC(=O)[C@H]([C@@H](C)O)NC(=O)[C@H]([C@@H](C)O)NC1=O [P-B09] (H-SDWVCELTTGGYVCQPLAPGGEGGGSK(5FAM)-NH2; disulfide 5-14; N-terminus assumed) | 6 µM |  |  | Kd [1]: 1 µM
CC(C)C[C@@H]1NC(=O)[C@H](CC(N)=O)NC(=O)[C@@H](NC(=O)[C@@H](NC(=O)[C@H](Cc2c[nH]c3ccccc23)NC(=O)[C@H](CC(N)=O)NC(=O)[C@@H](N)CO)C(C)C)CSSC[C@@H](C(=O)N[C@@H](CC(N)=O)C(=O)N[C@@H](CO)C(=O)N[C@@H](Cc2ccc(O)cc2)C(=O)N[C@@H](C)C(=O)N2CCC[C@H]2C(=O)NCC(=O)NCC(=O)N[C@@H](CCC(=O)O)C(=O)NCC(=O)NCC(=O)NCC(=O)N[C@@H](CO)C(=O)N[C@@H](CCCCNC(=O)c2ccc3c(c2)C(=O)OC32c3ccc(O)cc3Oc3cc(O)ccc32)C(N)=O)NC(=O)[C@H](Cc2ccccc2)NC(=O)[C@H](Cc2c[nH]c3ccccc23)NC(=O)[C@H](CCC(N)=O)NC(=O)[C@H](CC(N)=O)NC(=O)[C@H](CCCCN)NC(=O)[C@H](Cc2ccccc2)NC1=O [P-G08] (H-SNWVCNLFKNQWFCNSYAPGGEGGGSK(5FAM)-NH2; disulfide 5-14; N-terminus assumed) | 1.9 µM |  |  | 
CC[C@H](C)[C@@H]1NC(=O)[C@H](Cc2c[nH]c3ccccc23)NC(=O)[C@H](CCC(N)=O)NC(=O)[C@H](CC(N)=O)NC(=O)[C@H](CCCCN)NC(=O)[C@H](C(C)C)NC(=O)[C@H]([C@@H](C)CC)NC(=O)[C@H](CCC(=O)O)NC(=O)[C@@H](NC(=O)[C@@H](NC(=O)[C@H](Cc2c[nH]c3ccccc23)NC(=O)[C@H](CC(=O)O)NC(=O)[C@@H](N)CO)C(C)C)CSSC[C@@H](C(=O)N[C@@H](CC(N)=O)C(=O)N2CCC[C@H]2C(=O)N[C@@H](CC(C)C)C(=O)N[C@@H](C)C(=O)N2CCC[C@H]2C(=O)NCC(=O)NCC(=O)N[C@@H](CCC(=O)O)C(=O)NCC(=O)NCC(=O)NCC(=O)N[C@@H](CO)C(=O)N[C@@H](CCCCNC(=O)c2ccc3c(c2)C(=O)OC32c3ccc(O)cc3Oc3cc(O)ccc32)C(N)=O)NC1=O [Isolate 315A-18-E01] (H-SDWVCEIVKNQWICNPLAPGGEGGGSK(5FAM)-NH2; disulfide 5-14; N-terminus assumed) |  | 0.87 ± 0.21 µM | 0.23 µM and 0.49 µM and 0.17 µM | 
CC[C@H](C)[C@H](NC(=O)[C@H](CC(N)=O)NC(=O)[C@@H]1CSSC[C@H](NC(=O)[C@@H](NC(=O)[C@H](Cc2c[nH]c3ccccc23)NC(=O)[C@H](CC(=O)O)NC(=O)[C@@H](N)CO)C(C)C)C(=O)N[C@@H](CCC(=O)O)C(=O)N[C@@H](Cc2c[nH]c3ccccc23)C(=O)N[C@@H](CC(C)C)C(=O)N[C@@H](CCCCN)C(=O)N[C@@H](CCSC)C(=O)N[C@@H](CCC(N)=O)C(=O)N[C@@H](Cc2c[nH]c3ccccc23)C(=O)N[C@@H](C)C(=O)N1)C(=O)N[C@@H](CC(C)C)C(=O)N[C@@H](C)C(=O)N1CCC[C@H]1C(=O)NCC(=O)NCC(=O)N[C@@H](CCC(=O)O)C(=O)NCC(=O)NCC(=O)NCC(=O)N[C@@H](CO)C(=O)N[C@@H](CCCCNC(=O)c1ccc2c(c1)C(=O)OC21c2ccc(O)cc2Oc2cc(O)ccc21)C(N)=O [Isolate 315A-17-B01] (H-SDWVCEWLKMQWACNILAPGGEGGGSK(5FAM)-NH2; disulfide 5-14; N-terminus assumed) |  | 0.95 ± 0.16 µM | 1.2 µM and 0.9 µM | 
CSCC[C@@H]1NC(=O)[C@@H](NC(=O)[C@H](CC(=O)O)NC(=O)[C@H](Cc2c[nH]c3ccccc23)NC(=O)[C@H](CC(N)=O)NC(=O)[C@@H](N)CO)CSSC[C@@H](C(=O)N[C@@H](CO)C(=O)N2CCC[C@H]2C(=O)N[C@@H](Cc2c[nH]c3ccccc23)C(=O)N[C@@H](C)C(=O)N2CCC[C@H]2C(=O)NCC(=O)NCC(=O)N[C@@H](CCC(=O)O)C(=O)NCC(=O)NCC(=O)NCC(=O)N[C@@H](CO)C(=O)N[C@@H](CCCCNC(=O)c2ccc3c(c2)C(=O)OC32c3ccc(O)cc3Oc3cc(O)ccc32)C(N)=O)NC(=O)[C@H](C)NC(=O)[C@H](Cc2c[nH]c3ccccc23)NC(=O)CNC(=O)[C@H](CCC(=O)O)NC(=O)[C@H](C)NC(=O)CNC(=O)[C@H](Cc2ccccc2)NC1=O [P-E01] (H-SNWDCMFGAEGWACSPWAPGGEGGGSK(5FAM)-NH2; disulfide 5-14; N-terminus assumed) | 6.9 µM |  |  | Kd [1]: 5.3 µM
CC(C)C[C@@H]1NC(=O)[C@H](CC(N)=O)NC(=O)[C@@H](NC(=O)[C@@H](NC(=O)[C@H](Cc2c[nH]c3ccccc23)NC(=O)[C@H](CC(=O)O)NC(=O)[C@@H](N)CO)C(C)C)CSSC[C@@H](C(=O)N[C@@H](CC(=O)O)C(=O)N[C@H](C(=O)N[C@@H](CC(C)C)C(=O)N[C@@H](C)C(=O)N2CCC[C@H]2C(=O)NCC(=O)NCC(=O)N[C@@H](CCC(=O)O)C(=O)NCC(=O)NCC(=O)NCC(=O)N[C@@H](CO)C(=O)N[C@@H](CCCCNC(=O)c2ccc3c(c2)C(=O)OC32c3ccc(O)cc3Oc3cc(O)ccc32)C(N)=O)[C@@H](C)O)NC(=O)[C@H](Cc2ccccc2)NC(=O)[C@H](Cc2c[nH]c3ccccc23)NC(=O)[C@H](CCC(N)=O)NC(=O)[C@H](CC(N)=O)NC(=O)[C@H](CCCCN)NC(=O)[C@H](Cc2ccccc2)NC1=O [Isolate 304A-14-A12, DWVCNLFKNQWFCDTL] |  |  |  | Kd [2, 6]: 0.64 ± 0.1 µM
CC(C)C[C@H](NC(=O)[C@H](CO)NC(=O)[C@H](CC(N)=O)NC(=O)[C@@H]1CSSC[C@H](NC(=O)[C@@H](NC(=O)[C@H](Cc2c[nH]c3ccccc23)NC(=O)[C@H](CC(=O)O)NC(=O)[C@@H](N)CO)C(C)C)C(=O)N[C@@H](CCC(=O)O)C(=O)N[C@@H](Cc2c[nH]c3ccccc23)C(=O)N[C@@H](CC(C)C)C(=O)N[C@@H](CCCCN)C(=O)N2CCC[C@H]2C(=O)N[C@@H](CCC(N)=O)C(=O)N[C@@H](Cc2c[nH]c3ccccc23)C(=O)N[C@@H](Cc2ccc(O)cc2)C(=O)N1)C(=O)N[C@@H](C)C(=O)N1CCC[C@H]1C(=O)NCC(=O)NCC(=O)N[C@@H](CCC(=O)O)C(=O)NCC(=O)NCC(=O)NCC(=O)N[C@@H](CO)C(=O)N[C@@H](CCCCNC(=O)c1ccc2c(c1)C(=O)OC21c2ccc(O)cc2Oc2cc(O)ccc21)C(N)=O [Isolate 315A-17-B12] (H-SDWVCEWLKPQWYCNSLAPGGEGGGSK(5FAM)-NH2; disulfide 5-14; N-terminus assumed) |  | 1.8 ± 1 µM | 0.65 ± 0.36 µM | 
CC(C)C[C@H](NC(=O)[C@@H](NC(=O)[C@H](CC(=O)O)NC(=O)[C@@H]1CSSC[C@H](NC(=O)[C@@H](NC(=O)[C@H](Cc2c[nH]c3ccccc23)NC(=O)[C@H](CC(=O)O)NC(=O)[C@@H](N)CO)C(C)C)C(=O)N[C@@H](CCC(=O)O)C(=O)N[C@@H](Cc2ccc(O)cc2)C(=O)N[C@@H](Cc2ccccc2)C(=O)N[C@@H](CCCCN)C(=O)N[C@@H](CC(N)=O)C(=O)N[C@@H](CCC(N)=O)C(=O)N[C@@H](Cc2c[nH]c3ccccc23)C(=O)N[C@@H](Cc2ccccc2)C(=O)N1)[C@@H](C)O)C(=O)N[C@@H](C)C(=O)N1CCC[C@H]1C(=O)NCC(=O)NCC(=O)N[C@@H](CCC(=O)O)C(=O)NCC(=O)NCC(=O)NCC(=O)N[C@@H](CO)C(=O)N[C@@H](CCCCNC(=O)c1ccc2c(c1)C(=O)OC21c2ccc(O)cc2Oc2cc(O)ccc21)C(N)=O [Hybrid H12/A12, DWVCEYFKNQWFCDTL] |  |  |  | Kd [2, 6]: 2.8 ± 1.8 µM
